Whole data set: some 33,000 sequences, median “E-score (-0.5 to 0.5)” near -0.035, cut for the highest 2% near 0.35. Some of the results follow.
The sequences below were run against T1, Pdr3 (UniProt P33200) (assay: PBM E-score (8-mer binding enrichment) (E-score (-0.5 to 0.5)); higher = stronger / more preferred TF binding; most listed sequences are background and not binding sites). Conditions: protein concentration: 200 nM; construct: GST-full length.
T1 sequence: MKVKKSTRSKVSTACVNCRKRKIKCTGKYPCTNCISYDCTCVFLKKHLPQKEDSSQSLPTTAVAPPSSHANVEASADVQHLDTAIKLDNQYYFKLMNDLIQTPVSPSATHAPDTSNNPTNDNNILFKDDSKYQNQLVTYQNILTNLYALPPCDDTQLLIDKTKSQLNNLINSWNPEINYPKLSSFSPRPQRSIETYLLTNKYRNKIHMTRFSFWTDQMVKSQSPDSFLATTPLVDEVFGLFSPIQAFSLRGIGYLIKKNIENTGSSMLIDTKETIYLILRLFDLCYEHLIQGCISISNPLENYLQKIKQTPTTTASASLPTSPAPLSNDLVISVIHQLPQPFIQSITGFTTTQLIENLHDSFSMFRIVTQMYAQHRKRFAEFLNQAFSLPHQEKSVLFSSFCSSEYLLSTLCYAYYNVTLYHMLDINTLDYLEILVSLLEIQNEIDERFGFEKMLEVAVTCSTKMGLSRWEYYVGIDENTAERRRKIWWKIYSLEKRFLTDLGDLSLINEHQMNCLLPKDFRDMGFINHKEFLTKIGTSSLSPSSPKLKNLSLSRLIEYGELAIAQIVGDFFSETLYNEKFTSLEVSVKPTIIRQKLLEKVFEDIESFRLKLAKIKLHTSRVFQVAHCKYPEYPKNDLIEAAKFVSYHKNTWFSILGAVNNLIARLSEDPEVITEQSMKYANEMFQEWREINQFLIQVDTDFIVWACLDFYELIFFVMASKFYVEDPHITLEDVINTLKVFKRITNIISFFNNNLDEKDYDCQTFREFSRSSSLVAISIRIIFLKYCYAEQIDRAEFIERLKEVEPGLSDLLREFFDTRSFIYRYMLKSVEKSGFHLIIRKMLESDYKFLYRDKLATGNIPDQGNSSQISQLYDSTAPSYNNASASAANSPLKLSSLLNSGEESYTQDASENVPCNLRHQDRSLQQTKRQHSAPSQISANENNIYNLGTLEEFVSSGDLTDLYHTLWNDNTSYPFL
Outline: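 GST-tagged yeast TFs (full-length or DNA-binding domain) were made by PURExpress in vitro transcription/translation and applied at about 100-200 nM to universal all-10-mer Agilent arrays. The arrays were made double-stranded by primer extension, on fresh or once-stripped slides. Bound protein was detected with fluorescent anti-GST, and scans were normalised with masliner. Each ungapped eight-base word, pooled with its reverse complement, received an E-score (modified Wilcoxon-Mann-Whitney statistic) from the Universal PBM Analysis Suite.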

Sequence | PBM E-score
GCCTCGAC | -0.101
ACGTAAGG | -0.223
ATAGATAT | 0.117
ACAACCTG | -0.244
ATACACCA | -0.153
AGTGGGAG | -0.149
AGTGTCGC | -0.0529
ATTTGATA | -0.0459
AGCATACT | -0.115
AGATCTAG | -0.251
CCATACTA | 0.0554
CTCGTACC | -0.0678
AAGTAAAT | -0.0857
CTGCTTTC | 0.0128
ATGGACAC | 0.0372
ACTGAACA | 0.00031
GAGGATAA | -0.137
TACACATA | -0.0188
AGGTAGCG | -0.116
AGGGCTGA | -0.205
AGCAAGAG | -0.245
GCATATGC | -0.115
ACGCCGGC | 0.385
CAGGATGC | 0.0489
AGCTGTGC | -0.202

Sequence | PBM E-score
AAGCATGC | -0.172
GAAAAGAA | 0.136
AGGGCCGA | 0.0158
CGGTAGCA | -0.0781
ACGCGGCA | 0.0238
AATAGCCC | -0.0859
ATTGGTTA | 0.0538
CGGAAATA | 0.45
AACTGCTT | -0.134
ACGCCGCG | 0.265
TACGCGGA | 0.255
CGAAATTC | 0.161
AAGTACCT | -0.161
ACGATCAC | -0.107
ATGCTGGC | -0.142
AGAATGTA | -0.168
CCCGAACA | 0.166
GGTTGCAA | 0.0214
ACTGATCC | 0.00609
AACCACCC | -0.00213
GACTATAA | -0.132
CTGAAACC | 0.136
AAACAAAT | 0.00139
GCAAAACC | 0.0234
AATCACAG | -0.141

Sequence | PBM E-score
CAATTACG | -0.167
CTACCGAC | -0.0406
GCCCAGCC | -0.00261
AAAACGGT | -0.151
ATTTTGAC | 0.0233
CGTCCCGA | 0.199
CCCTAGAA | -0.243
CAGAACGG | 0.0368
ACACGTAT | -0.116
ATAGGTCA | -0.151
AGGGGGTG | -0.145
CGCCTGAA | 0.0126
GAATTTAC | 0.00207
ACAATGAC | -0.154
CTATTTCC | 0.203
CAGACTGA | -0.0851
CACACCCC | -0.0666
ACATACGT | -0.159
AATAACTG | -0.0475
GCTCGAGC | 0.236
ACAGGCTG | -0.268
ACGGGAAA | 0.277
GACAAGGC | -0.118
GCCTTCGC | 0.138
CGTGCGAA | 0.0161

Sequence | PBM E-score
CCATATCC | 0.145
AGGGCGAT | -0.24
TATATACA | -0.0274
ACCCGGCG | 0.276
AGCAGACT | -0.189
ACCCAAAA | -0.0452
CAAGGCAA | -0.188
GGTACGTA | -0.155
ACATGTAT | -0.0119
CGCAAGCA | -0.0779
CGCCCTCA | -0.196
AGATGACC | -0.0425
ATGAAGGC | 0.114
CTTAACCA | -0.141
TAAACGAA | -0.0987
ACGCGAAT | 0.0758
GGACTAGA | 0.0312
AACTTCTT | -0.139
CATGTGAC | -0.328
AACATAGA | -0.00192
ACCGCAGG | 0.134
AACAATCT | -0.154
AAGGTAAA | -0.0404
ACCATTAT | -0.103
CGCGTCGC | 0.0878

Sequence | PBM E-score
TGACATAA | 0.0239
CACGATGG | -0.012
AATGCGAG | 0.0414
GCACCTAA | -0.0848
AGTCGGTG | -0.0838
TATTAACA | 0.0492
AGAAGTGG | -0.055
GAACTCAA | -0.00987
CTGTGCTC | 0.0296
AATTTTGT | -0.0902
AGCACGAC | -0.093
AATTCAGC | 0.0247
ATCCTGGC | -0.0357
CACAGTCC | -0.0587
GAAAGGGA | -0.144
GCACTAAC | -0.0428
AGCGGCTG | -0.0985
AACTCTCG | -0.0123
TGTGCTAA | 0.217
GGACTTTA | 0.137
AACCTTAG | -0.18
GGACCCGA | 0.286
GTGACAAA | -0.0355
TAAATACA | 0.0167
TCGTGAAA | -0.141

Sequence | PBM E-score
ACCAACGG | 0.165
AGCGGTTG | -0.0205
CGGCAGAC | 0.181
AGCAGGGG | -0.0945
ATGGTGCC | 0.0575
CCCCGCCA | 0.247
AGTATGCG | -0.0538
CAGTTATG | -0.151
AGGCGTCG | 0.135
GCACCCGA | 0.222
AAATAATA | 0.166
AACGTGCT | -0.213
AGACTTAT | -0.334
AACTCCTC | -0.0525
GCGGCATA | 0.16
GTTCAAGA | -0.0184
GCCTACCC | -0.155
ATCGGAAA | 0.407
GCCCTACC | -0.101
CCGCCGTC | 0.168
ATGGAGCA | -0.0361
ATGGTGGG | -0.126
CGCGCAGA | 0.162
TACTTACA | -0.216
TAATGAAA | -0.0901

Sequence | PBM E-score
AGGACATC | 0.178
CAGGCGAG | -0.125
ACCAGTGA | -0.12
GAATTGAA | 0.108
CTAGCCTC | -0.162
AATCGGAC | 0.212
CCACTGTA | -0.198
ACTGAGCG | -0.185
GGCGTGAA | 0.017
CAGCGGCA | -0.0446
AAGTCCAC | -0.215
GCGTATCA | -0.0123
TGACAGCA | -0.0493
CACACTAG | 0.00957
ACGACGTG | -0.26
GGCTACAA | -0.0232
ACGAATGA | 0.0936
CGACTTGA | -0.18
CGCTCGTC | -0.169
ACTGCACG | -0.0631
GTTCTAAA | 0.0215
CGGAGTTA | 0.33
TCGAGGAA | -0.0817
CCCCGAGA | 0.0629
GCCTACAA | -0.0093

Sequence | PBM E-score
AACACTTG | -0.0557
ACGTTTCC | 0.156
CGTCCGCA | 0.0646
GATGATTA | -0.0268
CGCTCCAA | -0.0785
AAAGCTGC | -0.0314
ACCGGGCA | 0.102
ATGCCTCG | -0.0591
CATAAGAG | -0.135
AGAAGCTC | 0.103
AACGGTGG | -0.11
AGAGAGGG | -0.154
CATGCAGC | -0.129
GGAGTGCC | 0.229
GCCCGACA | 0.181
ACGATGAC | -0.126
CGCGTCCG | 0.272
AACCGATG | 0.0088
ATCTTCCC | 0.268
CCAAGATC | -0.0726
GTCAATCA | -0.144
AAATGTCT | -0.155
AATGAGCC | -0.0929
ATATACCA | -0.119
ATTAATGG | 0.0723

Sequence | PBM E-score
GCTGAGTA | -0.107
ACTCGTAC | -0.217
GGCTAACA | -0.132
ATACCGAC | -0.152
CCAACTGG | -0.00749
ATTAACTA | -0.199
AAATATAC | 0.0626
CGACCAAA | 0.164
CGTATGGA | -0.0276
AACTAGTT | 0.0669
GTTCTCCA | -0.0906
TAGGTGGA | -0.268
CCATATAG | -0.131
GGATCATA | 0.0938
ATCGAATG | -0.0988
CTATGTAA | -0.139
CGATCCAA | -0.115
AGCACTAT | -0.102
CACACTTA | -0.0169

Source: the supplement of paper PMC3334620
